Test results published in PubChem BioAssay AID1240 (Sanford-Burnham Center for Chemical Genomics, 2008).
Hit rate of the full screen: of about 50,000 compounds, about 800 (1.6%) showed an effect of 50% or more. The list shows a part of the results.

target: Bcl-2-like protein 10 (Homo sapiens) (UniProt Q9HD36); test: Phenotype converters, Bcl-B/TR3 peptide binding displacement, primary biochemical FP (AID 1240); settings: GST-Bcl-B / FITC-TR3 peptide fluorescence polarization; stronger effect = higher value; compound at 3.75 mg/L;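 also: 0% = Bcl-B with tracer peptide and DMSO and 100% = tracer peptide lacking Bcl-B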
Sequence of UniProt Q9HD36 (Q9HD36 whole entry, looked up): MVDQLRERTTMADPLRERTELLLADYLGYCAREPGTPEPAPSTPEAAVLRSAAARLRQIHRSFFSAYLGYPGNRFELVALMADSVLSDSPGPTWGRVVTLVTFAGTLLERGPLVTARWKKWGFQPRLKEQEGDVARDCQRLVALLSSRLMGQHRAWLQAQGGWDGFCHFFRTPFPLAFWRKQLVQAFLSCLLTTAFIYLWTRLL

Structure (SMILES)	displacement [%]
C=CCNC(=O)CN(c1ccccc1CC)S(C)(=O)=O	0.6
O=C(Nc1cccc(-c2nc3ccccc3s2)c1)c1ccc(-c2ccc([N+](=O)[O-])cc2)o1	70
COc1ccc(C(=O)N/C(=C\c2ccc(-c3cccc([N+](=O)[O-])c3)o2)C(=O)NCc2ccncc2)cc1	9.9
COc1ccc(C(NC(C)=O)c2ccc3cccnc3c2O)c(OC)c1 (centres undefined)	-15.3
Cc1cccc(C=Nc2ccccc2O)c1O	11.1
Cc1ccc(OCC(=O)N2CCN(c3ccccn3)CC2)cc1	4.5
COc1ccc(C2CC(C(F)(F)F)n3nc(C(=O)Nc4c(C)n(C)n(-c5ccccc5)c4=O)c(Cl)c3N2)cc1 (centres undefined)	11
CCOC(=O)C1=C(O)/C(=C/c2ccc(O)cc2)SC1=Nc1ccccc1	-10
O=C(c1ccccc1)N1CCN(Cc2c[nH]c3ccccc23)CC1	-4.1
CCCSc1nc2sc3c(c2c(=O)[nH]1)CCc1ccccc1-3	-9.7
CCn1c2ccccc2c2cc(NC(=O)c3cccc([N+](=O)[O-])c3C)ccc21	-8.3
Cc1sc(NC(=O)c2ccc(Cl)cc2)c(C(=O)OC(C)C)c1C	4.2
CC(=O)Nc1ccc(Oc2ccccc2)cc1	0.5
Cc1ccc([N+](=O)[O-])cc1N/C=C/C(=O)c1ccccc1	4.4
O=C(CCN1CCOCC1)Nc1c(-c2ccccc2)c2cc(Br)ccc2[nH]c1=O	-4.1
COc1ccc(C2CC(=O)C3=C(C2)Nc2ccccc2NC3c2ccccc2C)cc1 (centres undefined)	-10
C=CCc1ccccc1OCCOc1c(I)cc(/C=N/n2cnnc2)cc1OC	1.2
O=C1CCCC2=C1C(c1cccs1)Nc1ccc(C(=O)c3ccccc3)cc1N2 (centres undefined)	31.7
Cc1ccc(NC(=S)NC(=O)c2ccc(F)cc2)cc1Br	2.4
CC(C)Oc1cccc(C(=O)N2CCCC2)c1	-12.9
CCCOC(=O)c1ccc(NC(=O)c2ccc(-c3cccc(Cl)c3)o2)cc1	-4.6
C/C(=N\NS(C)(=O)=O)c1ccc(O)cc1O	7.2

Structure (SMILES)	displacement [%]
Cc1ccc(C)c(C(O)(c2ccccc2)c2cnc(C(C)C)n2C)c1 (centres undefined)	-1.4
O=C(NN1C(=O)c2ccc(Oc3cccc([N+](=O)[O-])c3)cc2C1=O)c1ccco1	-19.4
Brc1ccccc1CN1CCN(Cc2ccccn2)CC1	-0.7
O=C(CCc1ccccc1)Nc1c[nH]c(=O)[nH]c1=O	3.9
CCCOC(=O)c1ccc(NC(=O)COc2ccc(Cl)cc2C)cc1	0
CCOC(=O)C(NC(=O)c1ccccc1)=C1C=C(C)OC(C)=C1	5.6
CC(C)C(NC(=O)/C=C/c1ccc2c(c1)OCO2)C(C)C	12.9
CCCNC(=O)c1c(NC(=O)c2ccccc2Cl)sc2c1CCC(C)C2 (centres undefined)	-3.3
NNC(=O)C(NC(=O)c1ccc([N+](=O)[O-])cc1)C12CC3CC(CC(C3)C1)C2 (centres undefined)	33.9
CC1=C(C(=O)OC(C)C)C(c2ccc(F)c(Br)c2)CC(=O)N1 (centres undefined)	-0.5
CCOc1cccc(C(=O)Nc2cc(C(F)(F)F)cc(C(F)(F)F)c2)c1	-4.2
Cc1cc(I)ccc1S(=O)(=O)NCCCN1CCOCC1	-3.3
Cn1c(=O)c(C(=O)NC2CCCC2)c(O)c2ccccc21	-16.3
O=C1/C(=C/C=C/c2ccccc2)SC(=S)N1c1cccc(C(F)(F)F)c1	23.8
Cn1c(/C=N/c2nc3ccccc3[nH]2)nc2ccccc21	7.1
O=Cc1ccc(/C=C2/SC(=S)N(Cc3ccccc3)C2=O)cc1	10.5
CCCCOC(C)n1ccc(=O)[nH]c1=O (centres undefined)	6.5
COc1ccc(C(=O)Nc2ccc(I)cc2Cl)cc1	7.8
COc1ccc(NC(=O)c2c(OC)cccc2OC)c(OC)c1	-7.3
CCOc1cc(/C=C2/SC(=S)N(c3ccccc3)C2=O)ccc1OS(=O)(=O)c1ccccc1	8.7
CCOC(=O)c1ccc(-c2ccc(/C=C3/C(C)=C(C#N)c4nc(N)c(C#N)c(C)c43)o2)cc1	4.7
Cc1c(Cl)cccc1N1C(=O)CC(Sc2nc3ccccc3s2)C1=O (centres undefined)	-14

Structure (SMILES)	displacement [%]
O=C(NC(NC(=O)C(c1ccccc1)c1ccccc1)c1cccc([N+](=O)[O-])c1)C(c1ccccc1)c1ccccc1	0.3
CC(=O)c1cccc(NC(=O)/C(=C\c2cccs2)NC(=O)c2cccs2)c1	-17.5
CCN(CC)/C(=N/OCc1ccc(Cl)cc1Cl)c1nonc1N	10.1
CCOC(=O)N/N=C(\C)Cc1ccc2c(c1)OCO2	-4.1
CC(NC(=O)C(C)N1C(=O)c2ccccc2C1=O)c1ccccc1 (centres undefined)	2.9
O=C(Nc1ccc(Cl)cc1)N1CCN(Cc2ccc3c(c2)OCO3)CC1	-21.9
COc1ccc(NC(=O)N2CCN(c3ccc(F)cc3)CC2)cc1	9.4
CCN1C(=O)/C(=C2\SC(=S)N(c3ccccc3)C2=O)c2ccccc21	-5.1
CC(C)C(NC(=O)/C(=C\c1ccc2c(c1)OCO2)NC(=O)c1ccccc1)C(=O)O (centres undefined)	4.4
CCC1=NN2C(=N)/C(=C/c3ccc(OCc4ccccc4Cl)c(OC)c3)C(=O)N=C2S1	0.8
CCOC(=O)C(CCOc1ccc(Cl)cc1C)C(=O)OCC	9.2
Cc1ccc(S(=O)(=O)N(CC(=O)NC(C)c2ccccc2)Cc2ccccc2)cc1 (centres undefined)	4.5
COc1cc(C=O)ccc1OCCN1CCOCC1	-3.1
O=C(c1ccc(F)cc1)c1ccc(N2CCCCCC2)cc1	0.6
COc1ccccc1C(=O)Nc1ccc(I)cc1Cl	10
CCc1ccccc1N1C(=O)CC(Sc2nc(C)cc(C)n2)C1=O (centres undefined)	10.8
C/C(=N\N=C1\NC(=O)C(CC(=O)Nc2ccc(F)cc2)S1)C(C)(C)C (centres undefined)	-10.8
CC(C)C(=O)Oc1ccc2c(=O)c(Oc3ccc(C(C)(C)C)cc3)coc2c1	-6.4
CCC(=O)c1ccc(N2CCN(CCC#N)CC2)c(F)c1	-6.6
COc1ccc2c(c1)CC/C2=N/OC(=O)c1cc(OC)c(OC)c(OC)c1	-12.3
CCOC(=O)c1c(NC(=O)C2CC=CCC2C(=O)O)sc2c1CCC(C)C2 (centres undefined)	-7.5
O=C1N=C(N2CCOCC2)S/C1=C\c1cccnc1	26.4

Structure (SMILES)	displacement [%]
CN(C)C=Nc1ccc2nc3c(cc2c1)[nH]c1ccccc13	21.6
COc1cc(/C=C2/C(=O)NC(=O)N(c3cccc(C)c3)C2=O)ccc1OCCOc1ccc([N+](=O)[O-])cc1	23.2
O=C(COc1cccc2ccccc12)Nc1ccncc1	11.9
O=[n+]1cc(-c2ccc(Br)cc2)n([O-])c2c1CCC2	12.1
N#Cc1cnn(-c2ccccc2)c1NC(=O)c1ccccc1F	-6.8
Cc1cc(C)cc(Nc2cc(=O)n(C)c(=O)n2C)c1	14.2
COc1ccc(-n2nc3cc(C)c(NC(=O)c4cccc(Br)c4)cc3n2)cc1	9.8
Cc1ccc(-n2nc3cc(C)c(NC(=O)c4cccs4)cc3n2)cc1	1.8
COc1cc(/C=C2/SC(=S)N(C)C2=O)ccc1OCc1ccc(Br)cc1	88.9
CCOC(=O)/C=C(/C)Nc1c(C)n(C)n(-c2ccccc2)c1=O	14.5
CC1(C)CC(=O)C2=C(C1)Nc1ccccc1N(C(=O)c1ccccc1)C2c1ccc([N+](=O)[O-])o1 (centres undefined)	-0.2
O=C(COc1ccccc1)N1CCCCC1	-1.6
CC(=O)Nc1cccc(NC(=O)CC(c2ccccc2)c2ccccc2)c1	3.9
CN1C(=O)/C(=N\OC(=O)c2cccc(F)c2)c2ccccc21	-10.7
O=C(COc1ccc(Cl)cc1Cl)Nc1cc(-c2ccc(F)cc2)[nH]n1	13.6
CC(C)(C)C1=NN(C(=O)c2ccc([N+](=O)[O-])cc2)C(O)(C(F)(F)F)C1 (centres undefined)	11.1
CC(=NC1CC1)c1c(C(F)(F)F)[nH]n(-c2nc3ccccc3s2)c1=O	-12.3
COC(=O)c1ccc(N2C(=O)Cc3cc(OC)c(OC)cc3C2c2ccc(OC)cc2)cc1 (centres undefined)	-2.9
COc1cc(OC)c(/C=N/Nc2ccccc2[N+](=O)[O-])cc1Br	-1.7
COc1ccc(C(O)Cc2nc3ccccc3n2Cc2ccc(Cl)cc2)cc1 (centres undefined)	3.9
CC(C)CN1C(=O)/C(=C/c2ccc(O)cc2)SC1=S	-14.6
CCC(Oc1ccccc1)C(=O)Nc1ccc(C)c(Cl)c1 (centres undefined)	27.4

Structure (SMILES)	displacement [%]
CN(C)S(=O)(=O)c1ccc(C(=O)Nc2cc(Cl)cc(Cl)c2)cc1	15.1
O=C1NC(=O)/C(=C/c2ccccc2OCc2ccccc2Cl)S1	9.1
Cc1ccccc1OCC(=O)Nc1cc(Sc2ccccc2)cc([N+](=O)[O-])c1	6.6
O=C(O)CSc1nc2ccccc2c(=O)n1-c1ccccc1	6.2
O=C(Nc1ccc(OC(F)(F)F)cc1)c1ccc(Br)cc1	4.8
CN1CCN(C(=O)c2cc(-c3ccccc3)nc3ccccc23)CC1	6.3
CCC1CCc2c(sc(NC(=O)c3c(Cl)cccc3Cl)c2C(N)=O)C1 (centres undefined)	5.8
CC(=O)/C(C(=Nc1ccccc1)Nc1ccccc1)=C(/O)c1ccccc1	3.8
COc1cccc(/C=N/Nc2nc(-c3ccc(C)cc3)nc3ccccc23)c1O	3.4
C=CCNC(=O)/C=C/c1ccc(OCC)c(OC)c1	0.6
Cc1cccc(NC(=O)C2C3C=CC(C3)C2C(=O)O)n1 (centres undefined)	8.4
Nc1cccc(C(=O)Nc2ccc(N)cc2Cl)c1	5.3
CCOc1cc(/C=C2\SC(=S)N(c3cccc(C)c3)C2=O)ccc1O	7.4
O=C(/C=C\Nc1ccc2c(c1)OCO2)c1ccc2c(c1)OCO2	104
Cc1occc1C(=O)N/N=C/c1ccc(O)cc1O	78.5
CC(C)(C)OC(=O)NC(Cc1c[nH]c2ccccc12)C(=O)N1CCOCC1 (centres undefined)	-21.6
COc1ccc([N+](=O)[O-])cc1-c1ccc(/C=N\Nc2ccc([N+](=O)[O-])cn2)o1	-5.4
Cc1ccc(N2CC(C(=O)Nc3cccc(C)c3)CC2=O)cc1 (centres undefined)	-6.3
Cn1ccnc1SCC(=O)c1ccc(O)c(O)c1	3.5
Cc1cccc(Nc2nc3c(s2)CCCC3)c1	6.1
O=C1c2ccc([N+](=O)[O-])cc2C(=O)N1c1ccc(Cl)cn1	-2.3
